Measured values as given in article PMC11796369, “Genetic and biochemical characterization of a radical SAM enzyme required for post-translational glutamine methylation of methyl-coenzyme M reductase” (mBio, 2025).

Target: T1, Gln420-methylated MCR from M. acetivorans (MaMCR) (Methanosarcina acetivorans, UniProt Q8THG7+Q8THH0+Q8THH1)
T1 construct: gene mcrA
Experiment: X-ray crystal structure, […] Å
Settings: co-purified, not added, Ni(II) form, sulfonate oxygen coordinates Ni of F430

## C[C@@H](OP(=O)(O)O)[C@H](NC(=O)CCCCCCSSCCS(=O)(=O)O)C(=O)O [CoM-S-S-CoB, CoM-S-S-CoB heterodisulfide]
  X-ray crystal structure, 2.0 Å: the active site contains the CoM-S-S-CoB heterodisulfide positioned near the Ni(II)-F430
